# Assay results published in paper PMC4336329 (PLoS ONE, 2015).
# Hit rate of the full screen: of about 310,000 compounds, about 2,200 (0.71%) showed an effect of 50% or more. Effects have a minus sign here. The list shows a part of the results.
# Molecular target: human ether-à-go-go-related gene (hERG) potassium channel (human, UniProt Q12809)
# Assay: primary screen, population patch clamp on CHO cells stably expressing hERG
# Chain of human ether-à-go-go-related gene (hERG) potassium channel (Q12809 whole entry, looked up): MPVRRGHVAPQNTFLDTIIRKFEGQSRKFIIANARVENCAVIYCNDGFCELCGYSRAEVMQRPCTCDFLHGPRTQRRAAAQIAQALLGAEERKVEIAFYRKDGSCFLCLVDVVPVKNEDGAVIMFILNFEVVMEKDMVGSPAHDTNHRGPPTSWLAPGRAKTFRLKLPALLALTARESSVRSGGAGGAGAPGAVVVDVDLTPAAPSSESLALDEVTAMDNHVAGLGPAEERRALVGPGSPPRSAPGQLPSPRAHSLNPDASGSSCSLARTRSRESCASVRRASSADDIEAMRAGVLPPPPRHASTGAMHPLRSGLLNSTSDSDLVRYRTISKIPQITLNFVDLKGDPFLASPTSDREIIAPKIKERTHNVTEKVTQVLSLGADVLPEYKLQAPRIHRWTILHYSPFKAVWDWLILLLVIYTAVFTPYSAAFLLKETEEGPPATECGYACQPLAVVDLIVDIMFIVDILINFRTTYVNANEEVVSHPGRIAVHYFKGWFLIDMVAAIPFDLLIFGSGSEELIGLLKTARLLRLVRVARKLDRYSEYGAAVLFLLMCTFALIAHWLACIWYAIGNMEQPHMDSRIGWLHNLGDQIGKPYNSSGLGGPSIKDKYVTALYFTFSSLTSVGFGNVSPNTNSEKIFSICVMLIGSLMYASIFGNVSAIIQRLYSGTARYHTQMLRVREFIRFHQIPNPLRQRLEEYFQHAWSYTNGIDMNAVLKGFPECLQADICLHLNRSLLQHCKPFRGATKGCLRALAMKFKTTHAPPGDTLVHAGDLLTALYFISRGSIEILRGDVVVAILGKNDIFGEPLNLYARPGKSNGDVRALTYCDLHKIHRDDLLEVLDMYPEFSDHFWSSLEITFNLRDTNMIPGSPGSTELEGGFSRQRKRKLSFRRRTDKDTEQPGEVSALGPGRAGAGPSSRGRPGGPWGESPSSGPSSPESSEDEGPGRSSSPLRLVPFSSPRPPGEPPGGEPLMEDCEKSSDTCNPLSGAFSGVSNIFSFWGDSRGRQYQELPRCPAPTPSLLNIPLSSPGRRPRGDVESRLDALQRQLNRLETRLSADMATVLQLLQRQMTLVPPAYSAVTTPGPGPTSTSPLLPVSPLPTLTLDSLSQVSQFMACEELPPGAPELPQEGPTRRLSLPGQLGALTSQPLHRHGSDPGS
row,Structure (SMILES),"hERG current change (%, negative = inhibition) at 1uM [%]"
1,COc1cc(F)ccc1CN1CCC(n2nccc2NC(=O)C2CCOC2)CC1 (stereo not shown),-5.11
2,COc1cc2cc(CN(CCc3ccccc3C)C(=S)NCCCN3CCOCC3)c(=O)[nH]c2cc1OC,12.2
3,COc1cccc(OC)c1/C=C/C(=O)NC1CCCCC1,16.5
4,COc1ccc(-c2nc(CN3CCC(C(=O)N4CCOCC4)CC3)c(C)o2)cc1OC,-2.9
5,CCC(C)c1ccccc1NC(=O)COC(=O)CCc1cc(OC)c(OC)c(OC)c1 (stereo not shown),3.26
6,Cc1ccc(S(=O)(=O)N2CCCCC2CCNC(=O)C(=O)Nc2ccccc2F)cc1 (stereo not shown),13
7,COc1ccc(CCn2nnnc2CN2CCN(C(=O)c3ccco3)CC2)cc1OC,7.61
8,Cc1cc(=O)oc2cc(OCC(=O)Nc3nnc(CC(C)C)s3)ccc12,5.77
9,CC(NC(=O)c1ccc(CS(C)(=O)=O)cc1)c1ccc(-c2ccccc2)cc1 (stereo not shown),13.1
10,CC(=O)c1cccc(NC(=O)c2cc(-c3ccc(C)cc3)on2)c1,13.5
11,O=C(NN1C(=O)/C(=C/c2cccnc2)SC1=S)C(c1ccccc1)c1ccccc1,-1.76
12,Cc1cccc2cc(C3CC(c4ccco4)=NN3C(=O)CCC(=O)O)c(Cl)nc12 (stereo not shown),11.3
13,CNC(=O)CSc1nnc(-c2ccccc2F)n1CCc1ccccc1,-2.75
14,COCC(C)NC(=O)c1ccc(Cl)c(Cl)c1 (stereo not shown),2.31
15,Cc1ccc(OCC(=O)Nc2c3c(nn2C(C)(C)C)CS(=O)(=O)C3)cc1,-13.8
16,COc1ccc2nc(-c3ccccn3)[nH]c2c1,7.06
17,COc1ccc(OCc2cc(C(=O)NCc3nc(C)cs3)no2)c(Cl)c1,6.12
18,O=C(CNC(=O)c1ccccc1)NC1(C(=O)NC2CCCC2)CCCCC1,-0.415
19,Cc1cc(C(=O)OCC(=O)NCCc2ccc(S(N)(=O)=O)cc2)c2ccccc2n1,16
20,Cn1c(C(O)C(O)c2ccccc2)nc2ccccc21 (stereo not shown),10.1
21,COc1ccc(N2CCN(C(CNC(=O)C3CCCCC3)c3cccnc3)CC2)cc1 (stereo not shown),6.81
22,COc1ccc(NC(=O)c2cc(S(=O)(=O)N(Cc3ccccc3)c3ccccc3)ccc2Cl)cn1,1.84
23,CC(=O)c1cn(CC(=O)Nc2ccc(C)cc2)c2ccccc12,11.5
24,O=C(/C=C/c1ccccc1Cl)N(Cc1cccs1)C1CCS(=O)(=O)C1 (stereo not shown),13.8
25,O=C1NC(=Nc2ccccc2)S/C1=C\C=C\c1ccco1,14.7
26,Cc1ccc(S(=O)(=O)N2CCCOC2CNC(=O)C(=O)NCc2cccnc2)cc1 (stereo not shown),14.2
27,Cn1cc(-c2nnnn2-c2ccc(Cl)cc2)c(=O)c2ccccc21,-66.3
28,COc1cc(NC(=O)c2ccccc2-n2cnnn2)cc(OC)c1,11.7

row,Structure (SMILES),"hERG current change (%, negative = inhibition) at 1uM [%]"
1,C(=C\c1ccco1)/C1=NN(c2ccccc2)C(c2ccco2)C1 (stereo not shown),13.3
2,O=C(O)CC1S/C(=N\N=C2CCCCCC2)N(c2ccccc2)C1=O (stereo not shown),3.19
3,COc1ccc(/C=N/Nc2nc3ccccc3c(=O)n2-c2ccccc2)cc1OC,3.5
4,COc1ccc(-c2cc3nc(CCl)[nH]c(=O)c3s2)cc1,11.2
5,COc1ccc(CCC(=O)Nc2ccc(C(=O)c3ccncc3)cc2)cc1,12.9
6,Nc1cccc2c1C(=O)N(Cc1cccc(Cl)c1)C2=O,8.35
7,COC(=O)c1cccc(Oc2nc3c(c(=O)n(C)c(=O)n3C)n2Cc2ccc(C)cc2)c1,9.99
8,CCOC(=O)c1cc(S(=O)(=O)N2CCCC2)cn1C,15
9,COc1ccc(CN2CCN(Cc3ccc(C)cc3)C(CCO)C2)cc1OC (stereo not shown),-13.3
10,CCOC(=O)c1[nH]c(C)c(C(=O)OCC(=O)NCc2ccc(OC)cc2)c1C,8.09
11,COc1ccc(N2C(=O)CC(c3cc(OC)c(OC)c(OC)c3)CC2=O)cc1,7.75
12,CC/C(=N\NC(=O)c1nnn(-c2nonc2N)c1-c1ccc2c(c1)OCO2)c1ccccc1,9.96
13,O=c1oc2c(CN3CCOCC3)c(O)c(Cl)cc2c2c1CCCC2,7.18
14,O=C(CSc1ccc(-c2ccc(Cl)cc2)nn1)NC1CCCC1,12
15,O=C(Nc1ncc([N+](=O)[O-])s1)c1ccccc1Br,13.3
16,COC(=O)c1ccc(C)c(NC(=S)NCc2ccc(Cl)cc2)c1,8.06
17,CNc1ccc(C2(O)C(=O)c3ccccc3C2=O)cc1,0.586
18,CC1(C)CC(=O)C(C(O)c2ccccc2)C(C)(C)N1 (stereo not shown),11.7
19,COc1ccccc1[C@@H]1C(c2cccc(Cl)c2)=NN(c2ccccc2)[C@H]1C(=O)N1CCOC1=O,12.3
20,Cc1nn2c(C(F)(F)F)cc(-c3ccc(Cl)cc3)nc2c1C(=O)N1CCOCC1,-0.53
21,COc1ccc(-c2[nH]ncc2CNC(C)CCn2cccn2)cc1F (stereo not shown),10.2
22,COc1cccc(CNC(=O)CN(C)S(=O)(=O)c2ccc3c(c2)n(C)c(=O)c(=O)n3C)c1,15.2
23,NC(=O)CSc1nc2ccccc2c(=O)n1-c1ccccc1,16.8
24,c1ccc(Cn2c(NCc3ccco3)nc3ccccc32)cc1,-9.99
25,COCCn1nnnc1CN(Cc1cc2cc(OC)c(OC)cc2[nH]c1=O)C1CCCC1,5.95
26,COc1ccc(NC(=O)CN(C)S(=O)(=O)c2cccc3cccnc23)cc1,3.62
27,CN(CC(=O)Nc1cccc(F)c1)C(=O)CN1C(=O)C2CCCCC2C1=O (stereo not shown),12.5
